# Laboratory results taken from paper PMC4336329 (PLoS ONE, 2015).
# In all, about 310,000 compounds went through this assay and about 14,000 (4.5%) showed an effect of 50% or more. The effect is printed as a negative number. The list shows a part of the results.
# Molecular target: human ether-à-go-go-related gene (hERG) potassium channel (human, UniProt Q12809)
# Assay: primary screen, population patch clamp on CHO cells stably expressing hERG
# 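Note: peak tail current of the secondary pulse compared with the same well before compound.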
# human ether-à-go-go-related gene (hERG) potassium channel, sequence (Q12809 whole entry, looked up): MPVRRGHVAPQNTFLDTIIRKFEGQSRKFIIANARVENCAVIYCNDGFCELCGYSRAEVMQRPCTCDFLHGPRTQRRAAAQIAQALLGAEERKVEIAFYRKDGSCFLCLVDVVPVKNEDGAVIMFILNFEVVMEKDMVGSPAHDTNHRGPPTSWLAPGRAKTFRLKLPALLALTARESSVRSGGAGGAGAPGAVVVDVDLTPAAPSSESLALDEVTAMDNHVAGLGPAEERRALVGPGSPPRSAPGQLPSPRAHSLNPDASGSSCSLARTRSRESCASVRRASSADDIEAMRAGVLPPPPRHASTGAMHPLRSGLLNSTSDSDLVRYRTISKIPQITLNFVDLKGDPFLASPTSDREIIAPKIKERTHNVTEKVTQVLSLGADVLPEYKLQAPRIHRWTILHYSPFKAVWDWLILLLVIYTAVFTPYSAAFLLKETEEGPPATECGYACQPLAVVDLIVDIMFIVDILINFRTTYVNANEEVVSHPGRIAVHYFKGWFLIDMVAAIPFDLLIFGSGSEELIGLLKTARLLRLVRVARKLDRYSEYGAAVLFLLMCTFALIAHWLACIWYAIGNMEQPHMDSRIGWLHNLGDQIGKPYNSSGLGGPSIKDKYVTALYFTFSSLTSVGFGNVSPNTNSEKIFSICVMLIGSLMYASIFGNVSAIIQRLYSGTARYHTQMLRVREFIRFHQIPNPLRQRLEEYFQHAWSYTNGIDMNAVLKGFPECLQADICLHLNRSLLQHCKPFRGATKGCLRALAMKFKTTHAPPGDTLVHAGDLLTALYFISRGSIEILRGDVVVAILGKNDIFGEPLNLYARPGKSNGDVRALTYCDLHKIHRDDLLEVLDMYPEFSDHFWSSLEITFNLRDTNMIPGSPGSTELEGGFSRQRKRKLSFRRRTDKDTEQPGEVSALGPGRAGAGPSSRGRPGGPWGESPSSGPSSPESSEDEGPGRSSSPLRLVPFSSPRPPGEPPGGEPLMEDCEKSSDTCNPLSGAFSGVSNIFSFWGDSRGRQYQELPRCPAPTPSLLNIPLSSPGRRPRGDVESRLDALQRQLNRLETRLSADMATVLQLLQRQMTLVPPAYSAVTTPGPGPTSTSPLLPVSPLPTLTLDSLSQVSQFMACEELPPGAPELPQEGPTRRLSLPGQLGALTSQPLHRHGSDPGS
row,Structure (SMILES),"hERG current change (%, negative = inhibition) at 10uM"
1,Cc1ccccc1NC(=O)CSc1nnc(Cc2ccccc2)c(=O)n1N,3.16%
2,Cc1c(NC(=O)CSCc2ccccc2)cccc1C(=O)O,18%
3,COc1ccc(N(C(C)C(=O)N/N=C/c2ccc(OCC(C)C)cc2)S(C)(=O)=O)cc1 (stereo not drawn),-9.12%
4,CCCCn1c(N)c(N(CC(C)C)C(=O)c2ccc(-c3ccc(Cl)cc3)o2)c(=O)[nH]c1=O,1.07%
5,CCCCN(C)S(=O)(=O)c1c(C)[nH]c(=O)[nH]c1=O,2.53%
6,O=C(NC(=S)Nc1ccccc1[N+](=O)[O-])c1cncc(Br)c1,16.3%
7,O=C(CCC(=O)NNC(=O)c1ccc(Cl)cc1Cl)NCc1ccccc1,-8.65%
8,C#CCNC(=O)C1=C[C@@H](c2ccc(Br)cc2)C[C@@H](OCCCCO)O1,-18.9%
9,COC(=O)c1[nH]c2cc(OC)c(OC)cc2c1NC(=O)c1cccc(OC)c1,-0.275%
10,COC(=O)Cn1c(CN2CCOCC2)nc2c1c(=O)n(C)c(=O)n2C,9.63%
11,Cn1ncc(Cl)c1C(=O)Nc1nnc(C2CC2)s1,12%
12,CC(C)(C)c1ccc(C(=O)NNC(=S)NCC2CCCO2)cc1 (stereo not drawn),14.4%
13,O=C(CN1CCOCC1)Nc1nc2ccc(F)cc2s1,-8.56%
14,O=C(CSc1ccc(Cl)cc1)Nc1cc(-c2nc3ncccc3o2)ccc1Cl,-7.92%
15,CN(Cc1ccccc1)C(=O)COC(=O)/C=C/c1ccco1,10.2%
16,CCOC(=O)c1cc(S(=O)(=O)N2CCN(c3ccccc3OC)CC2)cn1C,-1.22%
17,CCCn1c2c(c(O)c(C(=O)Nc3ccccc3)c1=O)CCCC2,16.7%
18,CC(C)CNC(=S)Nc1ccc(S(N)(=O)=O)cc1,3.77%
19,CN(CC(=O)Nc1ccc(F)c(F)c1F)C(=O)CC1CCCCC1,-6.8%
20,CC(NCc1cc(Br)ccc1OCC(N)=O)C12CC3CC(CC(C3)C1)C2.Cl (stereo not drawn),-55.8%
21,O=C(/C=C/c1ccc(Cl)cc1)NCc1ccncc1,-2.14%
22,Cc1cc(O)c(C(C[N+](=O)[O-])c2ccc(Cl)cc2)c(=O)o1 (stereo not drawn),-12.1%
23,O=c1cc(-c2ccccc2)nc2nc(-c3ccccc3)[nH]n12,14.7%

row,Structure (SMILES),"hERG current change (%, negative = inhibition) at 10uM"
1,CCOc1ccc(N2CC(=O)SC2=S)cc1,-11.8%
2,COc1ccc(C2C(C(C)=O)=C(O)C(=O)N2CCc2c[nH]c3ccccc23)cc1OC (stereo not drawn),21.1%
3,COc1ccc(-c2csc3ncnc(N4CCN(c5cccc(C)c5C)CC4)c23)cc1,15.5%
4,COc1ccc(N2CCN(C(=O)NC(=O)c3ccc(Cl)cc3)CC2)cc1,-4.38%
5,NNC(=O)C(=O)Nc1ccc(Cl)c(Cl)c1,12%
6,CCCCN(C(=O)c1ccc(N2CCCC2=O)cc1)c1c(N)n(CCCC)c(=O)[nH]c1=O,2.38%
7,CCn1c(CNC(=O)c2ccccc2Br)nnc1SCC(=O)NC1=NCCS1,27.9%
8,CCOc1cc(S(=O)(=O)N2CCN(CC)CC2)ccc1Cl,-6.08%
9,CN1/C(=C/C2CC(=O)N(c3ccc([N+](=O)[O-])cc3)C2=O)C(C)(C)c2ccccc21 (stereo not drawn),-23.2%
10,CC(C)OCCCNc1ncc2c(n1)CC(c1ccccc1)CC2=O (stereo not drawn),-23.6%
11,O=C(O)C1CC(=O)N(Cc2cccs2)C1 (stereo not drawn),24.7%
12,CC1(c2nnc(Cc3ccccc3)o2)CC(c2ccc(C#N)cc2)=NO1 (stereo not drawn),-62.3%
13,COc1ccc(NC(=O)C/C(C)=N/NC(=O)COc2ccc(OC)cc2)cc1,-18.8%
14,CCCC(=O)Nc1ccc(S(=O)(=O)N2CCOCC2)cc1,3.59%
15,COc1cccc(C(=O)OCC(=O)c2c(N)n(C)c(=O)n(C)c2=O)c1,-3.46%
16,Cc1ccc(OCc2nnc(SCCN3CCOCC3)n2C)cc1.O=C(O)C(=O)O,-6.06%
17,COc1ccc(-n2cnnc2SCC(=O)Nc2cccc(S(N)(=O)=O)c2)cc1,10.4%
18,Cc1cc(OC(=O)C(C)(C)C)c([N+](=O)[O-])c(=O)[nH]1,19.7%
19,COc1ccc(C(=O)NC2CCN(Cc3ccccc3)C2)cc1S(=O)(=O)N1CCOCC1 (stereo not drawn),-8.46%
20,O=C(NC1CCCCC1)C(c1ccccn1)N(C(=O)c1csnn1)C1CCCCC1 (stereo not drawn),5.2%
21,O=C(CCNS(=O)(=O)c1ccccc1C(F)(F)F)NNC(=O)c1csc(N2CCOCC2)n1,-13.6%
22,CS(=O)(=O)N(CC(=O)N1CCCC1)c1ccc2c(c1)OCCO2,-23.7%
23,CN(C)S(=O)(=O)c1ccc(C(=O)Nc2ccccc2OC(F)(F)C(F)F)cc1,-16.6%

row,Structure (SMILES),"hERG current change (%, negative = inhibition) at 10uM"
1,Cc1cc(NC(=O)CS(=O)CC(=O)Nc2c(C)cccc2C)ccc1-n1cnnn1 (stereo not drawn),13%
2,CCN(CC)S(=O)(=O)c1ccc(OC)c(NC(=O)c2ccc([N+](=O)[O-])cc2)c1,-34.9%
3,Cc1ccc(CN2CCN(Cc3cccc(-n4cccn4)c3)CC2CCO)cc1 (stereo not drawn),-74.5%
4,Cc1nn(CC(=O)NCc2ccccc2)c(=O)c2cccn12,9.27%
5,O=C(CSc1ncnc2c1nnn2-c1ccc(F)cc1)NCC1CCCO1 (stereo not drawn),-12.4%
6,Cc1ccc(NC(=O)COC(=O)CCNS(=O)(=O)c2ccc(C)c(C)c2)cc1,-10.9%
7,CC1=CC(c2ccccc2)NC(=S)N1 (stereo not drawn),7.74%
8,CN1CCN(C(=O)COc2ccc(N(C)S(=O)(=O)c3ccc(F)cc3)cc2)CC1,-4.56%
9,COc1ccc(CCNC(=O)c2cnc3ccccn3c2=O)cc1,-22.3%
10,CCOc1ccc(-c2c(C(=O)N/N=C(\C)c3ccco3)nnn2-c2nonc2N)cc1,14.6%
11,N#CC1(C#N)C(C(=O)C23CC4CC(CC(C4)C2)C3)C12CCOCC2 (stereo not drawn),15.8%
12,Cc1cc(NC(=O)/C=C/c2cccc(Cl)c2)n(-c2nc3ccccc3[nH]2)n1,-1.83%
13,O=S(=O)(NCc1cc(-c2ccccc2)no1)c1ccc(Cl)cc1,-3.08%
14,Cc1cc(C)c(C(=O)Nc2ccc(S(=O)(=O)Nc3ccccn3)cc2)c(C)c1,13%
15,COCCN1CCC(CNCc2c(C(=O)N3CCCCC3)nc3c(C)cccn23)C1 (stereo not drawn),-12.7%
16,O=C(CCS(=O)(=O)c1ccccc1)OCc1ccc([N+](=O)[O-])cc1,-45%
17,CC(=O)N1CCN(CCS(=O)(=O)c2ccc(Br)cc2)CC1,0.779%
18,c1ccc(OCc2nn3c(Cn4cnc5ccccc54)nnc3s2)cc1,-28.6%
19,CCNC(=O)COc1ccc(CC)cc1,3.94%
20,Cc1ccc(S(=O)(=O)N2CCN(Cc3ccsc3)CC2)cc1,-28%
21,CCc1ccc(N2CN=c3s/c(=C\c4ccccc4)c(=O)n3C2)cc1,8.48%
22,COc1ccc(C(=O)NC(Oc2ccccc2)C(Cl)(Cl)Cl)cc1 (stereo not drawn),16.3%
23,COc1ccc(CCN(C)S(=O)(=O)c2ccc(Cl)nc2)cc1OC,-11.3%

row,Structure (SMILES),"hERG current change (%, negative = inhibition) at 10uM"
1,O/N=C/c1cc(Br)ccc1OCc1ccccc1F,6.6%
2,CCN(C(=O)CSc1nc2cc(C(=O)O)ccc2c(=O)n1Cc1ccccc1)c1ccccc1,23.9%
3,O=C(COC(=O)/C=C/c1ccccc1)NC1CCS(=O)(=O)C1 (stereo not drawn),-23.5%
4,Cn1cc(CN2CCCC(C(=O)Nc3cccc(-c4cc5ccccc5[nH]4)c3)C2)cn1 (stereo not drawn),-21.6%
5,CC1CN(c2sc(S(C)(=O)=O)nc2S(=O)(=O)c2ccc(Cl)cc2)CC(C)O1 (stereo not drawn),16.1%
6,COc1ccccc1OCCSc1nc2ccc([N+](=O)[O-])cc2s1,-2.78%
7,CSc1ccccc1C(=O)Nc1nc2ccccc2[nH]1,2.78%
8,O=C(CSc1ccccn1)N1CCCC(Nc2ccc(F)c(F)c2)C1 (stereo not drawn),-16.2%
9,N#Cc1ccccc1Cn1c(=O)oc2ccccc21,13.3%
10,Cc1cc2nccc(-c3ccc(F)cc3)n2n1,11.4%
11,O=C1/C(=C\c2ccc(Cl)c(Cl)c2)N2CCC1CC2,-0.482%
12,O=S(=O)(c1ccccc1)c1cnc(-c2cccnc2)nc1-c1ccccc1,1.04%
13,Brc1c(C[n+]2ccccc2)nc2ccccn12.[Br-],10.8%
14,C=CCNS(=O)(=O)c1nc(C)c(Cl)c(C)c1C#N,-2.44%
15,Cc1ccc(NCC(=O)Nc2ccc(Br)cc2)cc1C,11%
16,CC(C)(C)c1cc(NC(=O)Nc2ccccc2)no1,10.3%
17,O=C(NCc1ccccc1CN1CCCC1)C1CCN(S(=O)(=O)c2ccc(F)c(F)c2)CC1,-59.1%
18,CNC(=O)c1nn(-c2ccc(Cl)cc2)ccc1=O,9.97%
19,CCn1nccc1C(=O)Nc1cccc(C)c1C,4.31%
20,CC(=O)Nc1ccccc1C(=O)C(=O)NCCc1ccccc1,-6.79%
21,COc1ccc(NC(=S)NCc2ccco2)cc1,9.23%
